The values below come from publication PMC4336329 (PLoS ONE, 2015).

Each structure is given as a SMILES string. Screen size: about 310,000 compounds; about 2,200 (0.71%) showed an effect of 50% or more. Effects have a minus sign here. This is one part of the list.

The target in this test is human ether-à-go-go-related gene (hERG) potassium channel (human, UniProt Q12809). As to the kind of experiment: primary screen, population patch clamp on CHO cells stably expressing hERG.
human ether-à-go-go-related gene (hERG) potassium channel, sequence (Q12809 whole entry, looked up): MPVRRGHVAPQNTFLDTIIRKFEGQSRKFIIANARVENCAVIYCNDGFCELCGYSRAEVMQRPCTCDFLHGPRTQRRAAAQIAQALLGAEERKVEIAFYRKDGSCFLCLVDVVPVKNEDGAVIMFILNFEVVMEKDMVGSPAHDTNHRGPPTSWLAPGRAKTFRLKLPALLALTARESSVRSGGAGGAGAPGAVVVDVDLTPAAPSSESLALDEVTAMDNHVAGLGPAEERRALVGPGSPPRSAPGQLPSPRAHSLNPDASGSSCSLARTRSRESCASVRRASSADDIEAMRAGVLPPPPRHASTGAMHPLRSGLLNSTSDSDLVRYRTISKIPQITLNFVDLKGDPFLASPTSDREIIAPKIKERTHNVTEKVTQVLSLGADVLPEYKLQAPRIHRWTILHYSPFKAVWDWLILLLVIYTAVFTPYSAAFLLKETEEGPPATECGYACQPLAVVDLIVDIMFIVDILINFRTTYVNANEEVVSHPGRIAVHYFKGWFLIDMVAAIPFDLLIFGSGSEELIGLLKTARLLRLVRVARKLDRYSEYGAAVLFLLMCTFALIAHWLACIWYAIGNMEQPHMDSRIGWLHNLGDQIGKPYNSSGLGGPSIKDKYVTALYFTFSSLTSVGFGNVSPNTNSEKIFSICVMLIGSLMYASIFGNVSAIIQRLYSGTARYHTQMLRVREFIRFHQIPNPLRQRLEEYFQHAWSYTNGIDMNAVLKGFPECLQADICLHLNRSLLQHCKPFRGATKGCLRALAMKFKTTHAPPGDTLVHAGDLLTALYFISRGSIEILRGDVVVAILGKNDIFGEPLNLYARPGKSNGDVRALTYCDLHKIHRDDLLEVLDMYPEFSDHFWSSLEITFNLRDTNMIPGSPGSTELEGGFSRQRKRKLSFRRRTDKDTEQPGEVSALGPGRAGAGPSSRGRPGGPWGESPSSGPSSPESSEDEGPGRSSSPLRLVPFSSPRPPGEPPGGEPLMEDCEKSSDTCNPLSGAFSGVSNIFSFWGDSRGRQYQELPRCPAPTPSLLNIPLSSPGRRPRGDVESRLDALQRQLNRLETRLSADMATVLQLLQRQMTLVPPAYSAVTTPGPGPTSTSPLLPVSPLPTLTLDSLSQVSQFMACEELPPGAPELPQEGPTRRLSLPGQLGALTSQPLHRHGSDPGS
`COc1ccccc1C(=O)COC(=O)c1cnc(C)cn1`: the “hERG current change (%, negative = inhibition) at 1uM” value stood at 5.5%.

As for `O=C(c1cccc(C(F)(F)F)c1)N1CCC2(CC1)NCCc1[nH]cnc12`, the “hERG current change (%, negative = inhibition) at 1uM” value came out at 14.9%.

As to `CCOC(=O)C1C(=O)CC(C)(O)C(C(=O)OCC)C1c1cccc(OC(F)(F)C(F)F)c1` (stereo not drawn), the “hERG current change (%, negative = inhibition) at 1uM” value is 6.81%.

With `CC(C)(C)c1ccc(/C=N/NC(=S)Nc2cccnc2)cc1`, the “hERG current change (%, negative = inhibition) at 1uM” value is 11.8%.

In the case of `O=C(Nc1ccc(Cc2ccncc2)cc1)C1CCC(N2C(=O)C3C4C=CC(C5CC45)C3C2=O)CC1` (stereo not drawn), the “hERG current change (%, negative = inhibition) at 1uM” value is on record as 11.3%.

In the case of `COc1ccc(C(=O)NCC(=O)OCC(=O)Nc2cccc(S(=O)(=O)N3CCCC3)c2)cc1`, the “hERG current change (%, negative = inhibition) at 1uM” value worked out at 7.46%.

For `CCCCCC(=O)NC(=S)Nc1ccc(N2CCOCC2)cc1`, the “hERG current change (%, negative = inhibition) at 1uM” value is on record as 6.61%.

On to `N#Cc1c(NC(=O)c2cnccn2)sc2c1CCCC2`, for which the “hERG current change (%, negative = inhibition) at 1uM” value was 8.57%.

Regarding `CCC(C)NC(=S)Nc1ccc2nc(N3CCN(CC)CC3)cc(C)c2c1` (stereo not drawn), the “hERG current change (%, negative = inhibition) at 1uM” value is recorded as -1.18%.

On to `O=S(=O)(Nc1nc2ccccc2nc1Cl)c1ccc2ccccc2c1`, for which the “hERG current change (%, negative = inhibition) at 1uM” value was 3.71%.

For `FC(F)(F)c1nc2ccccc2nc1N/N=C\c1ccccc1`, the “hERG current change (%, negative = inhibition) at 1uM” value was determined as 13.1%.

As to `CC(=O)NC(CC(=O)Nc1cc(Cl)ccc1-n1cncn1)c1ccccc1` (stereo not drawn), the “hERG current change (%, negative = inhibition) at 1uM” value came to 12.8%.

Turning to `Cc1cc(NC(=O)CSc2nnc(CNC(=O)c3ccc(C(C)(C)C)cc3)o2)no1`, the “hERG current change (%, negative = inhibition) at 1uM” value came out at 11.8%.

For the molecule `N#CC(C#N)=C1CCc2ccccc2N1`, the “hERG current change (%, negative = inhibition) at 1uM” value is recorded as 13.1%.

As to `CN1C(=O)CC(Sc2ncccc2C(=O)O)C1=O` (stereo not drawn), the “hERG current change (%, negative = inhibition) at 1uM” value is given as 5.82%.

On to `CCOC(=O)c1ccsc1NC(=O)CCS(=O)(=O)c1ccccc1`, for which the “hERG current change (%, negative = inhibition) at 1uM” value is reported as 7.82%.

Regarding `CCCC[C@H]1COCCS(=O)(=O)N1Cc1ccccc1F`, the “hERG current change (%, negative = inhibition) at 1uM” value is listed as 5.73%.

In the case of `Cc1ccc2cc(CN(CC(C)C)S(=O)(=O)c3ccccc3)c(=O)[nH]c2c1`, the “hERG current change (%, negative = inhibition) at 1uM” value is 19.6%.

As for `O=S1(=O)C=C(Oc2ccc(F)cc2)c2ccccc21`, the “hERG current change (%, negative = inhibition) at 1uM” value was -1.18%.

With `Cc1oc2cc(OCC(=O)O)ccc2c(=O)c1Oc1ccccc1`, the “hERG current change (%, negative = inhibition) at 1uM” value turned out to be 11.3%.

As for `COc1cc(OC)cc(C(=O)NCC(C)NC(=O)c2cc(OC)cc(OC)c2)c1` (stereo not drawn), the “hERG current change (%, negative = inhibition) at 1uM” value came out at 9.69%.

As to `O=C(NCC(=O)N(c1cccnc1)C(C(=O)NC1CCCCC1)c1cccnc1)c1ccco1` (stereo not drawn), the “hERG current change (%, negative = inhibition) at 1uM” value came to 4.67%.

Regarding `O=c1[nH]c(SCCOc2ccccc2)nc2ccccc12`, the “hERG current change (%, negative = inhibition) at 1uM” value was -0.179%.

Turning to `Cn1nc(C(F)(F)F)c(-c2ccc(Br)cc2)c1NC(=O)Nc1ccc(F)cc1F`, the “hERG current change (%, negative = inhibition) at 1uM” value is 10.9%.
